# Laboratory results reported in the supplement of paper PMC4166925.
# ± gives the standard deviation of the averaged measurements. The full ranking holds about 33,000 sequences; the median of “E-score (dimensionless, -0.5 to 0.5)” is about -0.046, and the highest 2% start at about 0.36. The list shows a part of the results.
# Test system: T1, SpTbr T-box DNA-binding domain (GST fusion)
# T1 sequence: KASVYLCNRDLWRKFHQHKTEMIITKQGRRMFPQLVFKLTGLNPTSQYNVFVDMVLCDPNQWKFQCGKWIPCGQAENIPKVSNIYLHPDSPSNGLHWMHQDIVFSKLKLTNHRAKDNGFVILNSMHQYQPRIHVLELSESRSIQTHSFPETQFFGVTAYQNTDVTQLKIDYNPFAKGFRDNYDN
# Assay: PBM E-score of 8-mer (E-score (dimensionless, -0.5 to 0.5)); Tbr is Tbrain of the sea star Patiria miniata (Pm) or the sea urchin Strongylocentrotus purpuratus (Sp); higher = stronger binding preference; most listed sequences are background and not binding sites
# Conditions: the construct has about 5 more residues each side
# How it was run: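 Universal Agilent oligonucleotide arrays, made double-stranded by primer extension, were incubated with 200 nM GST-fused Tbr T-box DNA-binding domain in PBS (pH 7.5). The protein was expressed in BL21 E. coli at 20 °C and purified by glutathione affinity chromatography. After scanning and quantification, the Universal PBM Analysis Suite assigned an enrichment E-score to each ungapped 8-mer, averaged over duplicate arrays.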
row,Sequence,PBM E-score of 8-mer
1,GGCACTGA,-0.00205 ± 0.045
2,AGCTTCTG,-0.129 ± 0.045
3,CTAACTTC,-0.214 ± 0.017
4,GGACCTCA,-0.171 ± 0.12
5,GCTTCAAA,0.0158 ± 0.019
6,ATGAGGGC,-0.156 ± 0.012
7,AACCTATG,-0.15 ± 0.014
8,AGCTTAAA,-0.262 ± 0.042
9,CGGTAAGC,-0.00241 ± 0.1
10,CCGCAAGC,-0.0779 ± 0.028
11,GTCGCGAC,0.362 ± 0.019
12,CACGTGCA,0.221 ± 0.049
13,CTTAGCAA,0.0388 ± 0.079
14,ACTGATTC,-0.253 ± 0.045
15,GAAATTCA,-0.00178 ± 0.056
16,CACAGAGC,-0.203 ± 0.064
17,AGATTTTG,-0.0277 ± 0.0094
18,GACATAAC,0.116 ± 0.07
19,AGTGTAGG,0.095 ± 0.022
20,ACTCAAGT,-0.0383 ± 0.033
21,GGGCTACA,-0.175 ± 0.018
22,TGCGGACA,0.103 ± 0.018
23,AACAACAT,0.187 ± 0.02
24,GCGCTTAC,0.216 ± 0.054
25,CACCCGCA,0.334 ± 0.013

row,Sequence,PBM E-score of 8-mer
1,CGCTGCTC,-0.0945 ± 0.057
2,CCTTAATC,0.0359 ± 0.024
3,AAATTCGC,0.221 ± 0.058
4,CTACAATC,0.0754 ± 0.02
5,CCGACAGG,0.143 ± 0.013
6,ATCGCGTG,0.262 ± 0.043
7,CAATACAG,-0.0537 ± 0.03
8,CTTTGGAA,-0.173 ± 0.015
9,CGGATATA,-0.257 ± 0.029
10,CAACGCCC,0.229 ± 0.048
11,TAAACAAA,0.102 ± 0.025
12,CGGCTTGA,-0.125 ± 0.012
13,CCTTACCA,0.118 ± 0.01
14,CCAGCACC,0.216 ± 0.04
15,ACTTAAAG,0.0858 ± 0.033
16,AATGTTAT,0.0346 ± 0.014
17,ACCACCCC,0.194 ± 0.017
18,CACCTCTA,0.416 ± 0.0043
19,CTGTTAAC,0.312 ± 0.028
20,AAGGTTAG,-0.0571 ± 0.0011
21,CGATCAGC,0.0172 ± 0.057
22,GGCCAGTA,-0.0711 ± 0.056
23,AGATCCCG,0.00833 ± 0.049
24,CAGGGCCC,-0.291 ± 0.021
25,CGTATTTA,-0.0462 ± 0.14

row,Sequence,PBM E-score of 8-mer
1,AGGCTACA,-0.0329 ± 0.013
2,ACTCTCAA,0.0757 ± 0.041
3,GGCCTCCC,-0.148 ± 0.037
4,ACTCCCAT,-0.0982 ± 0.07
5,AGAATTCA,-0.133 ± 0.013
6,CTTCTGGA,-0.229 ± 0.015
7,TGCTTCCA,-0.0681 ± 0.08
8,AGGGCCAG,-0.181 ± 0.0096
9,ACTGCAGT,0.154 ± 0.018
10,ACGAACAT,-0.194 ± 0.015
11,CGCTGTAA,0.062 ± 0.039
12,ACACATTG,0.368 ± 0.01
13,ATTGACTG,0.00428 ± 0.066
14,TTATACAA,-0.134 ± 0.085
15,ATTTTCGG,-0.0219 ± 0.042
16,CCGGGACG,-0.361 ± 0.025
17,CATCTCCA,0.062 ± 0.0073
18,GGGATTAA,-0.136 ± 0.024
19,ATAAGGAA,-0.225 ± 0.023
20,GTCATCTA,-0.0343 ± 0.015
21,GACATGCC,-0.0319 ± 0.0052
22,AGAAATCT,-0.213 ± 0.018
23,AGCCCTAC,-0.268 ± 0.0059
24,GTGTTGCA,0.252 ± 0.011
25,CAATAGCG,0.0305 ± 0.023

row,Sequence,PBM E-score of 8-mer
1,CTATTAAC,0.127 ± 0.062
2,TGGGAGAA,-0.0254 ± 0.0022
3,ATCAGCCG,-0.123 ± 0.047
4,ACATCCGC,0.0136 ± 0.097
5,CATCCGAC,-0.108 ± 0.023
6,ACAGGATG,-0.111 ± 0.049
7,ACAGGAGA,-0.145 ± 0.039
8,ACTCCCAG,0.0858 ± 0.029
9,CTCCGTGC,-0.0991 ± 0.035
10,ACAGGGAC,-0.102 ± 0.0015
11,ATCAACAG,0.0731 ± 0.027
12,AGATAGAA,-0.0892 ± 0.033
13,TAAACCCA,-0.148 ± 0.0035
14,CTTATCGA,0.163 ± 0.03
15,AGCTCCAT,-0.315 ± 0.018
16,GGTATATA,-0.0429 ± 0.029
17,ACACTATA,0.23 ± 0.03
18,CATGAGGC,-0.124 ± 0.056
19,GTCTATAA,-0.0104 ± 0.0026
20,AAGATAGG,-0.229 ± 0.0052
21,AGCATATG,-0.0659 ± 0.049
22,ATTGGGGC,-0.0682 ± 0.045
23,AAGGCCCG,-0.318 ± 0.03
24,ACAAATCG,0.196 ± 0.025
25,GCGATGCC,0.0595 ± 0.015

row,Sequence,PBM E-score of 8-mer
1,GTGAGCAA,0.265 ± 0.015
2,CCTAGGAC,0.0978 ± 0.0063
3,GAGTCAGC,-0.0991 ± 0.088
4,CCCCTCAC,0.262 ± 0.045
5,GCTTCTGA,-0.0414 ± 0.064
6,AGACATGA,0.132 ± 0.015
7,GGAACTTA,-0.159 ± 0.056
8,AAGAGCGT,-0.0424 ± 0.019
9,ATTCACAC,0.4807 ± 0.0029
10,GCTACGCA,-0.0506 ± 0.019
11,ATACCTCG,0.00151 ± 0.043
12,CCTATCGC,0.149 ± 0.041
13,AAGCGGGC,-0.113 ± 0.017
14,AGACGGCA,0.00839 ± 0.028
15,ATGGCGCC,0.165 ± 0.0062
16,AATCGCGA,0.3847 ± 0.00013
17,TATGTCAA,0.159 ± 0.0082
18,CCGATCCG,-0.0886 ± 0.024
19,AAGTCGCA,0.28 ± 0.038
20,CCATAAGC,-0.172 ± 0.05
21,CAGCACTG,-0.0534 ± 0.077
22,GGCAAGGA,-0.244 ± 0.051
23,CCGGTAAA,-0.2 ± 0.051
24,AAGAGAGC,-0.199 ± 0.0097
25,ACTCGACC,-0.0433 ± 0.057

row,Sequence,PBM E-score of 8-mer
1,ATAGATAA,-0.101 ± 0.015
2,CACTGTAG,0.053 ± 0.033
3,AGAGCGCC,-0.0169 ± 0.049
4,AGTACCGA,-0.261 ± 0.026
5,GCCACAAC,0.0707 ± 0.044
6,CCACAGGC,-0.146 ± 0.12
7,AGCCATCG,-0.0175 ± 0.019
8,GACTGATC,-0.171 ± 0.054
9,AAGCCCGC,-0.0846 ± 0.0062
10,ACGAGCCA,-0.0748 ± 0.035
11,GATTGACC,-0.0313 ± 0.036
12,GATTGACA,0.2837 ± 0.00092
13,AGGGTCTG,-0.176 ± 0.011
14,AGTCTAAT,0.00585 ± 0.07
15,CAGACCAG,-0.239 ± 0.019
16,CCTGTGCA,-0.0844 ± 0.033
17,AGACATTC,-0.1282 ± 0.0002
18,CCAAAGAA,-0.241 ± 0.035
19,ATAACTTA,-0.049 ± 0.042
20,CCCCGCCG,-0.106 ± 0.084
21,GAGTTGTA,0.201 ± 0.018
22,CATTAACA,0.329 ± 0.029
23,CGACTGAG,-0.101 ± 0.021
24,AGTGGAAT,-0.0775 ± 0.014
25,CCTAACGC,0.152 ± 0.0044

row,Sequence,PBM E-score of 8-mer
1,CATCAGTA,-0.126 ± 0.054
2,AGCTGAAT,-0.142 ± 0.0049
3,AACCGAGG,-0.0751 ± 0.0094
4,CGTTCCTC,-0.148 ± 0.039
5,CACTGTTA,0.152 ± 0.04
6,ACCGCTGC,0.0922 ± 0.006
7,CATTGTAA,-0.0254 ± 0.0014
8,CATCATGA,-0.186 ± 0.057
9,ACGACTCC,-0.0524 ± 0.027
10,AACCGCAG,-0.0985 ± 0.026
11,ACAGCTGC,0.213 ± 0.044
12,ATAACCTG,0.0328 ± 0.059
13,ATGATTGA,0.0921 ± 0.024
14,CTGACCTA,-0.222 ± 0.084
15,GGAGGGCC,-0.235 ± 0.047
16,ACCACACA,0.248 ± 0.037
17,CCACGCAC,0.126 ± 0.019
18,ATATGGTC,-0.197 ± 0.0088
19,ATCTGCCA,-0.0509 ± 0.028
20,CTCGCTTA,0.0203 ± 0.037
21,AAATTGTT,0.0233 ± 0.084
22,TGACAACA,0.358 ± 0.019
